# Reference: article PMC6919601, “Identification of Plasmodium dipeptidyl aminopeptidase allosteric inhibitors by high throughput screening” (PLoS ONE, 2019)
# “And” between values parts separate entries of the source, which are not always exact repeats. Equal values may be shown once. Among all 110,000 compounds or so, about 230 (0.21%) showed an effect of 50% or more. The list shows a part of the results.
# Biological target: DPAP1 (Plasmodium falciparum, UniProt Q8IIJ9)
# Test: primary screen, percent inhibition; read by cleavage of a fluorogenic dipeptide substrate; higher = more effect of the substance
# Design: species or system P. falciparum D10 trophozoite lysates; single well
# 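Further: 30 min substrate incubation versus DMSO and 10 µM JCP410 controls.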
# DPAP1, sequence (Q8IIJ9 whole entry, looked up): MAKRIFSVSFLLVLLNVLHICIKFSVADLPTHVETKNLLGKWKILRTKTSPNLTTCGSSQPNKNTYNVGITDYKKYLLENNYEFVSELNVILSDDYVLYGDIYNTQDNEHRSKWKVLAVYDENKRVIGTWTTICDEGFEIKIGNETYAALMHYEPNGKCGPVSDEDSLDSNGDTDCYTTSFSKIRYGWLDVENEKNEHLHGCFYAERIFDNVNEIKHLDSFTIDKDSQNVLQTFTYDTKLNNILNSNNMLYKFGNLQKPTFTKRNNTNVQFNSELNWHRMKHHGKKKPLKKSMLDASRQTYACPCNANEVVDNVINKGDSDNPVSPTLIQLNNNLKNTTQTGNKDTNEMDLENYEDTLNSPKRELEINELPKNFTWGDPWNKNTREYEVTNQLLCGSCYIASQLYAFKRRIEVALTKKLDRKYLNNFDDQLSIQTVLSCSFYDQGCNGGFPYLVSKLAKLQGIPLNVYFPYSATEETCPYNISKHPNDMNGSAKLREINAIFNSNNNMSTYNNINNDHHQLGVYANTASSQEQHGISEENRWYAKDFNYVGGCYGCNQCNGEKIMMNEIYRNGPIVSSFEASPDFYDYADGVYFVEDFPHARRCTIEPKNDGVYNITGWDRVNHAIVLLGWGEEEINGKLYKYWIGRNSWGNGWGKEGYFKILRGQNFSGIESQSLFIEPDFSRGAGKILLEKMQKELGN
row,SMILES,% Inhibition @ 10 uM
1,CC(C)Cn1c(C(O)c2ccccc2)nc2ccccc21 (stereo not shown),3.81%
2,CCc1cccc(NC(=O)c2ccc3c(c2)OCO3)c1,-1.86%
3,Cc1ccc2[nH]c(SCc3ccccc3C)nc2c1,25.2%
4,CCOC(=O)N1CCC(NC(=O)CCCn2nc(C)c3sc4ccccc4c3c2=O)CC1,-6.82%
5,CC(=O)N1CCC(N2CCN(c3ncccn3)CC2)CC1,0.273%
6,O=c1oc(-c2ccccc2)nc2sc3c(c12)CCCCC3,0.219%
7,O=C(Cc1c2ccccc2nc2ccccc12)c1ccccc1,3.95%
8,O=C(Cc1c(C(=O)O)[nH]c2ccccc12)NCc1cccnc1,2.83%
9,CCOC(=O)c1c(CN2CCOCC2)n(C2CCCCC2)c2cc(Br)c(O)cc12,1.76%
10,Cc1ccc(-n2nc(C)c3c(C)c(CCC(=O)N4CCC5(CC4)OCCO5)c(C)nc32)cc1,-0.72%
11,COc1ccc(-c2cc3c(=O)n(CC(=O)NCCCN4CCCC4=O)ncn3n2)cc1,3.67%
12,COc1cc(NC(=O)CN2C(=O)c3ccccc3C2=O)c(OC)cc1Cl,-0.622%
13,COc1ccc(C(O)(c2ccc(OC)cc2)c2cccc(F)c2)cc1,3.24%
14,Cc1ccc(CN2C(=O)N/C(=C/c3ccccc3OCC(=O)Nc3ccc(F)cc3)C2=O)cc1,11.1%
15,CCOC(=O)CN(C)Cc1cccc(Br)c1,-3.42%
16,COc1cc(NC(=O)c2cnn3c(C(F)F)cc(-c4ccc(C)cc4)nc23)c(C(C)=O)cc1OC,-11.6%
17,CC1CCCN(S(=O)(=O)c2cccc(-c3cn4ccccc4n3)c2)C1 (stereo not shown),1.74%
18,CCN1C(=O)c2cccc3c(NC(=O)c4ccc(S(=O)(=O)N5CCCCC5)cc4)ccc1c23,2.92%
19,CS(=O)(=O)C1=NN2C(=N)/C(=C\c3ccc(O)c(O)c3)C(=O)N=C2S1,0.208%
20,CCCCCOc1ccc2c(C)cc(=O)oc2c1,1.48%
21,Cc1cc(-c2ccc(C)c(S(=O)(=O)N(Cc3ccco3)C(C)c3ccccc3)c2)on1 (stereo not shown),-0.166%
22,CCOc1ccc2c(c1)c(C(=O)O)c(C)n2C,-0.197%

row,SMILES,% Inhibition @ 10 uM
1,CCN(CC)C(=O)COc1cc(C)c(Cl)c(C)c1,6.69%
2,Cc1ccc(S(=O)(=O)CC(=O)Nc2ccccc2Cl)cc1,-9.28%
3,CCOc1ccc2nc(SCC(=O)N3CCc4ccccc4C3)sc2c1,0.343%
4,Cc1ccc(S(=O)(=O)c2nnn3c2nc(N2CCCCC2)c2ccccc23)cc1C,-3.08%
5,O=S(=O)(Nc1ccc(Oc2ccc(NS(=O)(=O)c3cccs3)cc2)cc1)c1cccs1,9.33%
6,CN(C)CCN(C)C1CCN(Cc2ccccc2)CC1,0.162%
7,COc1cc(CN2CCN(Cc3ccccc3C)CC2)cc2c1OCO2,-5.98%
8,COc1ccc(OC)c(NC(=O)CN(c2cc(Cl)cc(Cl)c2)S(C)(=O)=O)c1,-3.75%
9,Cc1ccc(N2Cc3ccccc3C2=O)cc1,-5.41%
10,C=CCSc1nc(=O)c(CC)c(O)n1C(C)CC (stereo not shown),0.827%
11,Cn1ncc2c(NCc3ccc4c(c3)OCO4)ncnc21,-0.757%
12,O=S(=O)(c1ccc(Oc2ccccc2Cl)c(S(=O)(=O)N2CCCC2)c1)N1CCCC1,-7.62%
13,COc1ccc(NC(=O)CN(c2ccc(C34CC5CC(CC(C5)C3)C4)cc2)S(C)(=O)=O)c(OC)c1,-1.98%
14,COCCCNC(=O)CCc1c(C)nc2c(c(C)nn2-c2ccc(C)cc2)c1C,-2.45%
15,CCOC(=O)c1cc2c(=O)n3ccccc3nc2n(C)/c1=N\C(=O)c1ccccc1C(F)(F)F,-2.04%
16,CCCC(C)NC(=O)c1cc(-c2ccccc2)nc2ccccc12 (stereo not shown),-15.7%
17,O=C1NC(=O)N(c2cccc3ccccc23)C(=O)/C1=C\c1cc2ccccc2[nH]1,5.66%
18,Oc1ccc(CSc2nc3ccccc3s2)c2cccnc12,2.57%
19,CN(C)CN1C(=O)S/C(=C/c2ccccc2F)C1=O,-1.32%
20,COc1ccc(CC(=O)Nc2ccc(Cl)c(Cl)c2)cc1,-0.969%
21,CN(Cc1ccc(Cl)c(Cl)c1)CC(O)c1ccccc1 (stereo not shown),3.15%
22,CC1=C(C(=O)Nc2ccc(Cl)cc2)C(c2cccs2)NC(=O)N1 (stereo not shown),3.61%

row,SMILES,% Inhibition @ 10 uM
1,CCN(CC)C(=S)NC(=O)/C=C/c1ccc(F)cc1,-5.97%
2,CC(C)(C)c1ccc(C2=N/C(=C\c3ccc4c(c3)OCO4)C(=O)O2)cc1,-3.89%
3,COc1ccc(Cc2nnc(C(=O)NC(C)C)o2)cc1OC,1.49%
4,OCCN(Cc1ccccc1)Cc1ccccc1F,-4.37%
5,CC(=O)C1=C(O)C(=O)N(CC#N)C1c1ccc(O)cc1 (stereo not shown),-2.74%
6,O=C(Nc1ccc(F)cc1F)c1cnn2c1NC(c1cccs1)CC2C(F)(F)F (stereo not shown),0.992%
7,CN1CCN(c2nnc(-n3cccc3)s2)CC1,-3.47%
8,O=S(=O)(Nc1ccccc1)c1ccc(C2CCCCC2)cc1,-3.55%
9,O=C1Nc2c(c(=O)[nH]c(=O)n2Cc2ccccc2)C1(NS(=O)(=O)c1ccccc1)C(F)(F)F (stereo not shown),5.3%
10,CC1C(c2ccccc2)N(C)CCC12NC(=O)NC2=O (stereo not shown),-2.51%
11,O=C(NCC1CCCO1)C1CCC(CNS(=O)(=O)c2ccccc2)CC1 (stereo not shown),-2.72%
12,O=C(NC1=NCCS1)c1ccccn1,-3.21%
13,Cc1ccccc1C1N(c2ccccn2)C(=O)C2CCCN21 (stereo not shown),1.23%
14,CCCOc1cccc(-c2cc(C(=O)NCC3CCCO3)c3ccccc3n2)c1 (stereo not shown),-4.15%
15,Cc1cc(C)cc(Oc2c(C(F)(F)F)oc3cc(OCC(=O)N4CCCCC4)ccc3c2=O)c1,-5.51%
16,Cc1nc2c(Cl)cc(Cl)cc2c(=O)n1-c1ccccc1F,2.05%
17,Cc1[nH]nc(-c2ccccc2)c1Br,-4.35% and -4.93%
18,O=c1cc(-c2ccccc2)c2ccc3c(c2o1)CN(c1cccnc1)CO3,6.01%
19,Cc1cc(C)n(-c2nc(-c3ccccc3)cc(-c3ccc(Br)cc3)n2)n1,4.63%
20,O=C(c1cccc(S(=O)(=O)N2CCCCC2)c1)N1CCCCC1,-5.41%
